# Laboratory results as given in the supplement of paper PMC5499739.
# Whole data set: some 16,000 sequences, median “Z-score” near -0.37, cut for the highest 2% near 3.2. This is one part of the list.
# Test system: RBM10 RRM1-ZnF (GST-tagged construct)
# Assay: RNAcompete 7-mer binding Z-score; higher = stronger binding preference
# Method in brief: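 GST-tagged RBM10 constructs (20 pmol) and a designed pool of 241 399 RNAs up to 41 nt (1.5 nmol) were allowed to bind for 30 min at 4°C in 1 ml Hepes pH 7.8 buffer with glutathione Sepharose beads. After four 2-min washes at 4°C, bound RNA was identified by microarray hybridisation. Enrichment was scored per heptamer motif as a one-sided Z-score across the probes containing it.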
row,Sequence,RNAcompete 7-mer binding Z-score
1,GAUUUCU,-0.681
2,CUCGCAA,-0.698
3,AUUUUAU,-0.711
4,UAGAAUC,-0.376
5,GAAUUUG,0.137
6,CCGUGGU,0.361
7,AUUACUG,-0.529
8,ACAAUGU,-0.305
9,GAGAGGG,2.7
10,GAUUUCA,-0.594
11,GUAGAAU,0.631
12,CGAUAUG,-0.207
13,CAUUUAG,-0.72
14,GGAGCCU,-0.0512
15,UUGUCGA,-0.568
16,UCACCAA,-0.704
17,AUGGGAC,2.09
18,GUGCGCU,0.368
19,UUGAGGG,3.4
20,UUGAAUA,-0.35
21,UCACGGG,0.878
22,UUGAUGA,0.261
23,CUAGAUC,-0.591
24,UCAUACU,-0.733

row,Sequence,RNAcompete 7-mer binding Z-score
1,ACGCCGC,-0.633
2,GUAUCGG,0.592
3,GUGCUCA,-0.152
4,UAACGUC,-0.438
5,CGAGAAA,-0.0122
6,AAAUUUU,-0.691
7,CUCGAUA,-0.688
8,AGAACUG,-0.0414
9,AAGAGCC,-0.409
10,CGGGAGA,1.24
11,GGCCUGG,0.378
12,GCUCUGA,-0.62
13,GACAAGG,2.5
14,GGGUUAU,2.6
15,CACGUCU,-0.746
16,CGGGUAA,1.89
17,UUACAAG,-0.243
18,GAAGGAU,3.32
19,GGUGAGG,4.5
20,GUCCUUA,-0.711
21,AUGCCGC,-0.646
22,AAGUGAA,0.927
23,GAAGUUG,1
24,GCCCCCU,-0.353

row,Sequence,RNAcompete 7-mer binding Z-score
1,GCGUACC,-0.604
2,ACUUCAU,-0.733
3,GUUGAAU,0.316
4,CGGUGCC,-0.243
5,CUUGCAC,-0.828
6,UUAGGGU,2.78
7,AGGUUAG,2.18
8,AACACUU,-0.668
9,ACAACAG,0.00404
10,GAUACGC,-0.275
11,AACUGCA,-0.399
12,GUUAUCA,-0.272
13,GAUGGGA,3.76
14,GCAGGGG,3.32
15,GACUUCC,-0.802
16,AAAAAGA,-0.035
17,AUUCCAG,-0.581
18,GACAUAU,-0.451
19,CUGUUGG,-0.11
20,UAAUUGC,-0.519
21,AAACCGA,-0.75
22,UUCCAGU,-0.639
23,UAAGGAG,1.97
24,UGAUUUA,-0.493

row,Sequence,RNAcompete 7-mer binding Z-score
1,GUGGGUA,3.53
2,CGAUCAA,-0.477
3,CCUUUGA,-0.805
4,GCUUUAU,-0.698
5,AGUACAU,-0.305
6,ACUUUUU,-0.785
7,UGUGUUU,-0.165
8,GUCGAUA,-0.292
9,AACAAAA,-0.516
10,CGUUUUA,-0.87
11,CAUGGGC,1.08
12,UACUCUG,-0.782
13,ACCGCAC,-0.591
14,CCGUUCC,-0.967
15,GUACCAC,-0.301
16,CUACCAU,-0.691
17,UGAUAGU,-0.0772
18,GUGGGCU,2.33
19,UCUAGGU,-0.126
20,UUCCCCG,-0.337
21,AUGUAAC,-0.227
22,ACAUUAA,-0.487
23,UGAGACU,-0.288
24,CGCGUUU,-0.886

row,Sequence,RNAcompete 7-mer binding Z-score
1,GAUUGUA,0.095
2,GUACAGA,0.186
3,CACAAGC,-0.548
4,AGGCAUA,0.0398
5,AAACUUG,-0.629
6,AAGCUCG,-0.126
7,AGGACGC,-0.022
8,AACUGUA,-0.662
9,CUUUCGC,-0.964
10,UGUCGGA,0.277
11,GUCUGUC,-0.496
12,ACGGCCA,-0.48
13,UGGAAAC,1.19
14,CAAGGGA,2.42
15,CCCUUUA,-0.928
16,CUCUAUU,-0.828
17,AGUACGG,1.36
18,AUCUGUC,-0.785
19,UGUUCCC,-0.565
20,CUAGGCA,-0.334
21,AUUCAGU,-0.49
22,GAGUUCU,-0.506
23,AAAGCAG,0.371
24,CCAUGAG,-0.383

row,Sequence,RNAcompete 7-mer binding Z-score
1,CCGUUUA,-0.919
2,GACAGGC,0.716
3,GUAAAUU,-0.0674
4,AUAGACA,-0.103
5,UCACCCU,-0.613
6,GAGCUUA,-0.37
7,AUGGUAC,0.872
8,UUAGAGU,0.225
9,UCGCGGC,-0.204
10,AAAUCGG,0.355
11,GCACCAG,-0.223
12,ACAACAU,-0.357
13,CCAUAGU,-0.772
14,CUAAAUU,-0.649
15,UGAUUAU,-0.321
16,UUUUUGG,0.433
17,GAAGGCC,0.118
18,CAAUGGC,-0.158
19,AGACUCC,-0.753
20,CUAUAGC,-0.659
21,AGCCGAC,-0.425
22,AUGGAGG,4.22
23,UCAUGGC,-0.314
24,GCUAUCA,-0.412

row,Sequence,RNAcompete 7-mer binding Z-score
1,GGGAGUG,3.73
2,GCUAAGC,-0.526
3,CAUUCAA,-0.62
4,GAAGUAU,0.173
5,AGCGUUA,-0.0934
6,ACAAGAU,-0.441
7,CCGCAAU,-0.727
8,UAAGUUG,0.329
9,AGACAGC,-0.545
10,ACUCAUA,-0.854
11,AGGACAU,0.43
12,UCGUCGU,-0.314
13,GGCCUAG,-0.266
14,CAAUCCC,-0.623
15,GUACUGG,0.547
16,ACUGGAA,0.813
17,GGGAACC,1.62
18,ACCGGGA,1.19
19,UGAGAGU,0.43
20,CAGAUCG,-0.188
21,ACGUCGG,0.0398
22,ACGCCGU,-0.47
23,GUAGAGG,3.56
24,GUCAUCA,-0.6

row,Sequence,RNAcompete 7-mer binding Z-score
1,GCCAUAA,-0.756
2,GGGAUCU,0.816
3,ACUACCG,-0.649
4,GUUGCAA,-0.0382
5,GGAAUCC,0.0333
6,AAAGGCU,0.807
7,GCGUAGG,1.78
8,AUUCCCG,-0.912
9,AUGCAGA,0.16
10,CCAGGUA,0.348
11,AGCUAUA,-0.35
12,AGACGGC,-0.35
13,UUAUUUC,-0.737
14,CUUACCA,-0.704
15,GGUACGA,1.06
16,CCGCAAA,-0.733
17,GGACCCC,-0.0252
18,GCAGUCU,-0.539
19,AUUUCGC,-0.919
20,GGCAAGA,0.852
21,ACCGCGA,-0.694
22,UUCCAAU,-0.792
23,UCAAAGC,-0.552
24,GAUCAGC,-0.155

row,Sequence,RNAcompete 7-mer binding Z-score
1,UUACAGC,-0.61
2,CGGGCUU,0.677
3,AAGGCAC,0.927
4,GGCGGUG,1.94
5,GAUAACG,0.186
6,UACUCGU,-0.61
7,AAUCUGU,-0.789
8,UAUCUCC,-0.837
9,ACGAGAA,0.163
10,ACCCCGG,-0.119
11,AAGGAAA,3.36
12,GAGGGAU,3.16
13,CAAGGAC,0.543
14,UGUCCCG,-0.496
15,CCUCAGU,-0.743
16,GUUCGCG,-0.262
17,AUUCUGG,-0.295
18,UCCGGGC,-0.168
19,ACGCUCA,-0.591
20,GUGUAGG,2.81
21,AUUACGA,-0.392
22,UGGUCCG,-0.0934
23,AAGGAGU,3.09
24,GUUUACU,-0.503

row,Sequence,RNAcompete 7-mer binding Z-score
1,GGUACAU,0.787
2,GAACUGC,-0.396
3,AACGAUA,-0.327
4,GCUGCUG,-0.00571
5,UGCCGAU,-0.668
6,CUCGUUG,-0.493
7,UGUAAUA,-0.331
8,AGUCGAA,-0.0934
9,AUUGCAG,0.03
10,GCGCCGG,-0.149
11,GGUUUCU,0.192
12,AUCAGCU,-0.672
13,AGUGUUU,0.241
14,CAAACUC,-0.792
15,AAACAAG,0.199
16,CCCGUGA,-0.409
17,CGAUCCA,-0.789
18,CGCCGUA,-0.558
